For six compounds, GI50 and TGI results are on record in PubChem BioAssay (NCI).

Test in all cases: inhibition of tumour cell growth, NCI panel, 48 h
Test [1] relates to NCI-H226 lung.
For test [2], the system named is OVCAR-3 ovarian.
Test [3] deals with CCRF-CEM leukemia.
In test [4] the test system is HCT-116 colon.
The subject of test [5] is HL-60(TB) leukemia.
Test [6] deals with COLO 205 colon.
Test [7] deals with OVCAR-4 ovarian.
In test [8] the test system is K-562 leukemia.
For test [9], the system named is MOLT-4 leukemia.
Test [10] has as its system NCI-H522 lung.
Test [11] relates to SK-MEL-5 melanoma.
The subject of test [12] is SR leukemia.
Test [13] has as its system SK-MEL-2 melanoma.
The test system of test [14] is MALME-3M melanoma.
Test [15] deals with HS 578T breast.
Test [16] relates to A549 NSCLC.
The test system of test [17] is LXFL 529 NSCLC.
Test [18] has as its system SN12C renal.
Test [19] relates to SW-620 colon.
For test [20], the system named is KM20L2 colon.
The test system of test [21] is A498 renal.
Test [22] concerns XF 498 CNS.
The test system of test [23] is HOP-62 NSCLC.
The subject of test [24] is EKVX NSCLC.
In test [25] the test system is SNB-19 CNS.
Test [26] relates to HCT-15 colon.
The subject of test [27] is SNB-75 CNS.
Test [28] concerns UACC-62 melanoma.
The test system of test [29] is NCI/ADR-RES ovarian.
The test system of test [30] is HOP-92 NSCLC.
Test [31] relates to RPMI-8226 leukemia.
Test [32] has as its system BT-549 breast.

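A five-concentration, 48-hour dose response in 96-well plates underlies each endpoint, interpolated linearly between surrounding concentrations. GI50 marks 50% less growth.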 Certain results were filed several times, with different values. This is not the full list of results. There may be further records. For some assays here: Values that stand side by side repeat one measurement across runs, samples, wells, individuals or studies. Brackets tell where a record comes from. A, B and so on number the origins entry by entry.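 The concentration for full growth arrest is given as TGI.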 For some assays here: Records of one sample usually come from different ranges of test concentrations, not given here; a value can be the end of its range.

With `COC(=O)C1=COC(C)C2CN3CCc4c([nH]c5ccccc45)C3CC12` (centres undefined), in test [1], the GI50 was 3.49 µM [sample A, 1 test] and > 100 µM [sample B, 1 test].

Take `CN(C)C(=S)SSC(=S)N(C)C`: the GI50 was 96 nM [sample A, mean of 2 tests] and 213 nM [sample B, 1 test] and 1.08 µM [sample C, mean of 2 tests] in [2]; 31 nM [sample A, mean of 2 tests] and 8.78 µM [sample B, 1 test] and 77.5 nM [sample C, mean of 2 tests] in test [3]; 23.1 µM [sample A, mean of 2 tests] and 13.9 µM [sample B, 1 test] and 59.7 nM [sample C, 1 test] in test [4]; 15.2 nM [sample A, mean of 2 tests] and 21.6 µM [sample B, 1 test] and 58 nM [sample C, mean of 2 tests] in test [5]; 14.7 µM [sample A, 1 test] and 37.5 nM [sample B, mean of 2 tests] in test [6]; 14.2 µM [sample A, 1 test] and 7.89 µM [sample B, 1 test] and 156 nM [sample C, mean of 2 tests] in [7]. For the same compound, the GI50 in [8] was 1.51 µM [sample A, mean of 2 tests] and 1.43 µM [sample B, 1 test] and 75.6 nM [sample C, mean of 3 tests]; in test [9], 5.32 µM [sample A, mean of 2 tests] and 20.9 µM [sample B, 1 test] and 110 nM [sample C, mean of 3 tests]; in [10], < 35.1 nM [sample A, mean of 2 tests] and 895 nM [sample B, 1 test] and 73.1 nM [sample C, 1 test]; in test [11], 1.05 µM [sample A, mean of 2 tests] and 18.1 µM [sample B, 1 test] and 332 nM [sample C, mean of 2 tests]; in test [12], 11.9 µM [sample A, 1 test] and 22.3 µM [sample B, 1 test] and 68 nM [sample C, mean of 2 tests]. The TGI in test [2] is 26.9 µM [sample A, mean of 2 tests] and 2.3 µM [sample B, 1 test] and 55 µM [sample C, mean of 2 tests].

With `c1ccc2c(c1)[nH]c1c2cc[n+]2cc3c(cc12)CCCC3`, the TGI in test [2] was 7.31 µM [sample A] and > 100 µM [sample B]; in [13], 3.31 µM [sample A] and > 100 µM [sample B].

Take `CC(C)CC(C/C=C1/CC(CO)(COC(=O)C(C)(C)C)OC1=O)CC(C)C` (centres undefined): in test [14], the GI50 is 11.5 µM [sample A, 1 test] and 224 nM [sample B, 1 test]; the TGI was 25.1 µM [sample A, 1 test] and 697 nM [sample B, 1 test]. For the same compound, the GI50 in test [15] was 4.38 µM [sample A, 1 test] and 260 nM [sample B, mean of 2 tests].

In the case of `COc1cc2c(cc1OC)[C@H]1CN3CCC[C@H]3C=C1c1ccc(OC)c(O)c1-2`, the TGI in [2] is < 0.1 nM and 142 nM; in test [16], 32.9 nM and 331 nM; in [17], < 0.1 nM and 1.6 µM; in test [18], 3.74 nM and 1.52 µM; in test [19], 2.63 nM and 133 nM; in [20], 0.408 nM and 1.2 µM. The TGI in test [21] is 0.138 nM and 220 nM; in [22] it was < 0.1 nM and 221 nM; in [5], 0.867 nM and 412 nM; in test [23], 0.41 nM and 132 nM; in [24] it was 44.8 nM and 10.3 µM; in test [25] it was < 0.1 nM and 10.8 µM. For the same compound, the TGI in [8] was 321 nM and 15.8 nM; in [9], 1.65 nM and 243 nM; in test [26], 1.61 nM and 10.9 µM; in test [27], 0.93 nM and 16.3 nM.

Turning to `COc1ccc(-c2ccc3c(N4CCOC[C@@H]4C)nc(N4CCOC[C@@H]4C)nc3n2)cc1CO`, the GI50 in test [13] is 6.53 nM [sample A, mean of 2 tests] and 69.1 nM [sample B, 1 test]; in test [5] it was 14.1 nM [sample A, mean of 2 tests] and 443 nM [sample B, 1 test]. Also, the TGI in [13] was 41.4 nM [sample A, mean of 2 tests] and 712 nM [sample B, 1 test]; in [28], 9.51 nM [sample A, mean of 2 tests] and 142 nM [sample B, mean of 2 tests]; in [29] it was 988 nM [sample A, mean of 2 tests] and > 100 µM [sample B, mean of 2 tests]; in test [30] it was 8.39 nM [sample A, mean of 2 tests] and 584 nM [sample B, 1 test]; in [6], 203 nM [sample A, mean of 2 tests] and 4 µM [sample B, mean of 2 tests]; in [31], 155 nM [sample A, mean of 2 tests] and > 100 µM [sample B, 1 test]. The TGI in [11] is 54.9 nM [sample A, mean of 2 tests] and 708 nM [sample B, mean of 2 tests]; in test [32], 57.2 nM [sample A, mean of 2 tests] and 5.41 µM [sample B, mean of 2 tests].
